Experimental data published in the supplement of paper PMC3334620.
The full ranking holds about 33,000 sequences; the median of “E-score (-0.5 to 0.5)” is about -0.011, and the highest 2% start at about 0.28. Some of the results follow.

These sequences were tested against T1, Gcr1 (UniProt P07261) (assay: PBM E-score (8-mer binding enrichment) (E-score (-0.5 to 0.5)); higher = stronger / more preferred TF binding; most listed sequences are background and not binding sites). Conditions: protein concentration: 100 nM; construct: GST-full length.
T1 sequence: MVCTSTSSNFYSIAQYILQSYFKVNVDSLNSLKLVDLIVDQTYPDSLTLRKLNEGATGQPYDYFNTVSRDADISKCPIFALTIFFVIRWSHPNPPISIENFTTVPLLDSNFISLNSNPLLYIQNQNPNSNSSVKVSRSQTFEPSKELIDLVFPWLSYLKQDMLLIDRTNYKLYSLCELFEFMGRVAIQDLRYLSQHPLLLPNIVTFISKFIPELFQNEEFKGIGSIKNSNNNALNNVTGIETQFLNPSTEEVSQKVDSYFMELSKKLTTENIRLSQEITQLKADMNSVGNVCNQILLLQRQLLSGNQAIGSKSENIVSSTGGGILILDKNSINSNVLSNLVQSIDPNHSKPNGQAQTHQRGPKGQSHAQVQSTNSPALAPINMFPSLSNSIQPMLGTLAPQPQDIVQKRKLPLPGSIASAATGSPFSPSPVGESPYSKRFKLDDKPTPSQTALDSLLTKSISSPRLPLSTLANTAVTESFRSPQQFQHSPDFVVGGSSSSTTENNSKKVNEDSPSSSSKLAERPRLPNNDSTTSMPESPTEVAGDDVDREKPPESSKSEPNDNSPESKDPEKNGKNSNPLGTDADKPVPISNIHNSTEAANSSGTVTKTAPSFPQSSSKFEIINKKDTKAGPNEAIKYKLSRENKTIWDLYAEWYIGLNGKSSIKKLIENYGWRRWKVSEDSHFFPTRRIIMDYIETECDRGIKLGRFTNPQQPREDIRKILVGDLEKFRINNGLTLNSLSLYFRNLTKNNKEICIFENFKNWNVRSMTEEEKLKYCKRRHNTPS
How it was run: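 Yeast transcription factors carrying a GST tag, as full-length proteins or DNA-binding domains, were produced by PURExpress in vitro transcription/translation. About 100-200 nM protein was applied to universal all-10-mer Agilent arrays, double-stranded by primer extension on fresh or once-stripped slides. Bound protein was detected with fluorescent anti-GST, and scans were normalised with masliner. The Universal PBM Analysis Suite gave each ungapped eight-base word, pooled with its reverse complement, an E-score, a modified Wilcoxon-Mann-Whitney statistic.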

| Sequence | PBM E-score |
| --- | --- |
| CAACGCCC | 0.0625 |
| CTGTTAAC | -0.0199 |
| CACCTCTA | 0.0633 |
| AATGTTAT | 0.159 |
| ACCACCCC | 0.0593 |
| ACTTAAAG | 0.0453 |
| CCAGCACC | 0.235 |
| CCTTACCA | 0.0258 |
| ACTCTCAA | 0.00305 |
| AGGCTACA | 0.0361 |
| CGTATTTA | 0.202 |
| CAGGGCCC | 0.158 |
| AGATCCCG | 0.125 |
| GGCCAGTA | 0.148 |
| CGATCAGC | -0.189 |
| AAGGTTAG | -0.00114 |
| ATGAGGGC | -0.119 |
| GCTTCAAA | 0.192 |
| GGACCTCA | -0.149 |
| CTAACTTC | 0.239 |
| AGCTTCTG | 0.245 |
| GGCACTGA | 0.0877 |
| AACGTGCC | 0.0609 |
| ACAAAGGC | -0.078 |
| AATGTGCG | 0.17 |

| Sequence | PBM E-score |
| --- | --- |
| AGAACATC | -0.0115 |
| ACTGATTC | -0.0425 |
| GAAATTCA | 0.0164 |
| CACGTGCA | -0.127 |
| CTTAGCAA | -0.2 |
| GTCGCGAC | -0.0332 |
| CCGCAAGC | -0.254 |
| AGCTTAAA | -0.0201 |
| CGGTAAGC | -0.151 |
| AACCTATG | -0.059 |
| ACTCAAGT | 0.152 |
| TGCGGACA | -0.11 |
| GGGCTACA | -0.0418 |
| AGTGTAGG | 0.0919 |
| GACATAAC | 0.0114 |
| CACAGAGC | -0.121 |
| AGATTTTG | 0.135 |
| CACCCGCA | 0.0465 |
| GCGCTTAC | -0.17 |
| AACAACAT | 0.0437 |
| CAGGTCTC | 0.0571 |
| TATCCCGA | -0.18 |
| AACAATTC | -0.0888 |
| AGGTTTAG | 0.00287 |
| ATTGTCCA | 0.0701 |

| Sequence | PBM E-score |
| --- | --- |
| ATCTTAAC | -0.14 |
| CAAAAAGC | 0.0645 |
| CGCGCGGC | 0.0619 |
| GGTTAACA | 0.096 |
| CCCGGCTA | -0.122 |
| CAACCCTC | -0.126 |
| ATTGCTGC | 0.0296 |
| CAGGGCCG | -0.0747 |
| CGGAGTCA | -0.00995 |
| AGTATAAC | -0.184 |
| TCGTTCAA | 0.046 |
| GAATCCCA | 0.367 |
| CCTGGCAC | 0.0553 |
| AATTAGTG | 0.199 |
| CTATTAAA | 0.147 |
| AGTAGAAC | 0.0351 |
| ACAGATTA | -0.034 |
| AGAAGCTG | 0.348 |
| ACCTTAGA | 0.0306 |
| AGCATTCG | -0.235 |
| CCAGTAGA | -0.0842 |
| CTAGAAGC | 0.154 |
| ATCATAAC | -0.0233 |
| GGATCTTA | 0.112 |
| AGAGTCGC | 0.00386 |

| Sequence | PBM E-score |
| --- | --- |
| AATGGACG | 0.143 |
| GAGCGTCC | 0.384 |
| GGGGCTGA | -0.111 |
| TCGGAACA | -0.154 |
| ATGACACC | -0.0655 |
| ACTCCTAG | -0.0566 |
| ACGTATCT | 0.0512 |
| CCAATGCC | -0.0992 |
| ATCGATTA | -0.11 |
| GCACTACA | -0.0953 |
| CGTAGCCC | 0.0578 |
| AAGGGCCT | -0.086 |
| AATGTTGG | 0.0669 |
| GAAACCGC | 0.0874 |
| ATTTAACG | 0.0481 |
| ATTCTTCA | 0.0311 |
| AATGGTGC | 0.208 |
| AGGGGGGA | -0.317 |
| AATATCTG | 0.0703 |
| TAGTTCCA | 0.106 |
| CACTGGGA | -0.0218 |
| GGGCATCA | 0.159 |
| AACGGCGA | 0.00215 |
| ACTGAACC | -0.154 |
| CTGATGTC | -0.161 |

| Sequence | PBM E-score |
| --- | --- |
| AGCTCCGC | -0.0453 |
| AACAAGAC | -0.0162 |
| ACTAACGC | -0.0486 |
| CGGTACAC | -0.124 |
| GACTGATA | 0.015 |
| GGTGCGCA | 0.182 |
| AGGTTTGC | -0.144 |
| ACTATGGC | -0.13 |
| AGTCGACT | 0.11 |
| ACTTGGAG | 0.094 |
| GCGCGCGA | 0.0214 |
| ACAGATGT | 0.0175 |
| ACATTCCC | 0.0896 |
| GACGAAAC | -0.102 |
| TATTCAAA | 0.161 |
| ATACCCAC | -0.119 |
| ATTCGACG | 0.0051 |
| AGTGTGGA | 0.199 |
| AAGATAAA | 0.0762 |
| AGTGTCAT | -0.0106 |
| TCTCCCAA | -0.134 |
| ATGTTTAG | 0.19 |
| AGGATTTA | 0.0224 |
| AGGACCGA | -0.0238 |
| CAGCGTGA | -0.0708 |

| Sequence | PBM E-score |
| --- | --- |
| GCTTCACC | -0.114 |
| CTCATCAG | 0.0338 |
| CCTCTATC | 0.221 |
| AAGCGGTA | 0.0596 |
| ACGCGAGG | -0.0221 |
| AACAAAGC | 0.131 |
| CGCCTCGA | 0.0744 |
| ATCCTCAG | -0.165 |
| CCCCGGCC | -0.168 |
| CATAACCG | -0.0467 |
| AAGGAAGT | 0.147 |
| ATCTTGTG | 0.174 |
| GGTTTTAC | -0.0204 |
| CCTTCCGA | -0.12 |
| CCCGCGCA | -0.127 |
| TGACGACA | 0.0813 |
| TACAGACA | -0.0516 |
| CCACCGCA | -0.218 |
| TACATTCA | -0.00055 |
| GCAGCATA | -0.0763 |
| AGTTTCAT | 0.116 |
| ACGCAAAA | -0.0858 |
| CCCCTACA | -0.159 |
| GAAAAGCA | 0.0861 |
| CACCAGAC | 0.00613 |

| Sequence | PBM E-score |
| --- | --- |
| GATCGTGC | -0.19 |
| CTTCGAAG | 0.0307 |
| ATGCTTAC | -0.202 |
| GCACTGGC | -0.109 |
| AACGGTAG | -0.023 |
| ACTCGTCC | -0.119 |
| GAGCACAA | -0.0302 |
| CATGCGAC | -0.26 |
| CAAATTTA | 0.22 |
| AATTGGAG | 0.107 |
| GCAAGCAA | -0.215 |
| CCGCCGCC | 0.0704 |
| CGACCTCA | -0.113 |
| CCCTACGA | -0.125 |
| AAAAGTTT | 0.139 |
| ACGAGGAG | 0.0149 |
| AAGTGGGC | 0.19 |
| ATCAGCAT | 0.136 |
| ATGAACCA | -0.101 |
| AATATACC | -0.0618 |
| ACCATACC | 0.0742 |
| CCCAGAGA | 0.113 |
